Among all 48,000 compounds or so, about 550 (1.1%) were called active. Another 4% or so got no clear call; they are omitted. Cut-off read from the data, not from the text of the source: active = potency below about 15 µM; inconclusive = mostly about 16 µM to 33 µM; inactive = weaker than that. Some of the results follow.
Biological target: Lysosomal acid glucosylceramidase (Homo sapiens) (UniProt P04062)
Assay: Glucocerebrosidase;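 note: the screen sought inhibitors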
Conditions: purified enzyme, resorufin glucoside fluorescence (screen aimed at inhibitors), 20 min
Summary of the method: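 Wild-type enzyme at 0.2 nM final in 50mM citric acid/KH2PO4, 10mM sodium taurocholate, 0.01% tween-20, pH 5.9, with resorufin beta-D-glucopyranoside at 30 uM final. Compounds titrated, 20 min at RT, red fluorescence read; AC50 from titration.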
Potency is the fitted concentration of half-maximal effect.

Sequence of UniProt P04062 (P04062 whole entry, looked up): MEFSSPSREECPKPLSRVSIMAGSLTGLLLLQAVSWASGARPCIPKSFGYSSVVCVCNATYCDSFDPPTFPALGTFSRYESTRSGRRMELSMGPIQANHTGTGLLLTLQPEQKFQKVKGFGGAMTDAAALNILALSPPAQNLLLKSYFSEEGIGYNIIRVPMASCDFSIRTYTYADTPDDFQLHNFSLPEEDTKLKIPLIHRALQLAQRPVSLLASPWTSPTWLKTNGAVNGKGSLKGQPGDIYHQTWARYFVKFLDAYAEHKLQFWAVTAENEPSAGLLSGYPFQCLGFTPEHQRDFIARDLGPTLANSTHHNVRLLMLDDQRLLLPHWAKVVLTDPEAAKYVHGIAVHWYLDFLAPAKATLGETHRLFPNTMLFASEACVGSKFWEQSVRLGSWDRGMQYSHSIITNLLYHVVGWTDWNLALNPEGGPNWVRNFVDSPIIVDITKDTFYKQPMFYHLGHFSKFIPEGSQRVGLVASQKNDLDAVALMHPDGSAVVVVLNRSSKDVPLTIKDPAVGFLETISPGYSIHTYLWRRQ

Potency, inactive:
Cc1cccc(OCCCC(=O)Nc2nccs2)c1 > 76.9 µM, CCCCN(Cc1cc2cc(OC)ccc2[nH]c1=O)C(=O)COc1ccccc1 > 76.9 µM, Cc1cc(F)ccc1S(=O)(=O)Nc1ccccc1C(=O)Nc1ncn[nH]1 > 76.9 µM, Cc1ccc(NC(=O)c2ccccc2)s1 > 76.9 µM, CCOC(=O)N1CCN(S(=O)(=O)c2cc(OCC)ccc2OCC)CC1 > 76.9 µM, CCOC(=O)C1=C(C)NC(=O)NC1c1ccco1 (stereo unspecified) > 76.9 µM, Cc1cccc(-c2nsc(SCC(=O)Nc3cc(C)on3)n2)c1 > 76.9 µM, Cn1c(=O)c(C(=O)c2ccccc2)nc2ccccc21 > 76.9 µM, CCCC(=O)Nc1nc2ccc(NC(=O)c3ccc(Br)o3)cc2s1 > 76.9 µM, FC(F)(F)c1cc(-c2ccco2)nc(NCc2cccs2)n1 > 76.9 µM, COc1ccc(NC(=O)N(CCO)Cc2cc3c(C)cc(C)cc3[nH]c2=O)cc1 > 76.9 µM, COc1ccccc1N1CCN(C(=O)CSc2nnc(-c3ccoc3C)o2)CC1 > 76.9 µM, Oc1ccc(Cl)cc1CNCC1CCCO1 (stereo unspecified) > 76.9 µM, O=S(=O)(NC1CCCCC1NS(=O)(=O)c1ccc(F)cc1)c1ccc(F)cc1 (stereo unspecified) > 76.9 µM, Cc1ccc(N2C(=O)[C@@H]3Cc4ccccc4CN3C2=O)cc1 > 76.9 µM, Cc1onc(-c2c(F)cccc2Cl)c1C(=O)Nc1cccc(Cn2cccn2)c1 > 76.9 µM, Cc1ccc(-c2c(C)n([O-])c3c([n+]2=O)CCC3)o1 > 76.9 µM, CS(=O)(=O)c1ccc(Cl)c(NC(=O)COC(=O)CNC(=O)c2ccc(Br)o2)c1 > 76.9 µM, O=C(Nc1ccccc1)N(C1=NCCCCS1)c1ccccc1 > 76.9 µM, CN(Cc1nc(-c2ccccn2)no1)S(=O)(=O)c1ccc(Cl)cc1 > 76.9 µM, COC(=O)C1C(=O)C2=C(CC1C)NC(=O)CC2c1cccc(C)c1 (stereo unspecified) > 76.9 µM, Cc1ccc2[nH]c(=O)c(C(c3nnnn3CC3CCCO3)N3CCCc4ccccc43)cc2c1 (stereo unspecified) > 76.9 µM, COc1cc2c(cc1OC)C(C(=O)N1CCN(c3ccccn3)CC1)C(c1cccs1)N(C)C2=O (stereo unspecified) > 76.9 µM, Cc1cc(C)n(/N=C/c2ccccc2)c(=O)c1C#N > 76.9 µM, Cc1noc(C)c1COC(=O)Cc1ccc(Cl)c(Cl)c1 > 76.9 µM, CCc1ccc(C(C)NC(=O)c2cc(C)oc2C)cc1 (stereo unspecified) > 76.9 µM, O=S(=O)(Nc1ccc2c(c1)oc1ccccc12)N1CCCC1 > 76.9 µM, Cc1cc(C(=O)Oc2ccccc2C(=O)O)c(C)o1 > 76.9 µM, Cn1c(SCc2cc(=O)n3cc(Br)ccc3n2)nnc1C1COc2ccccc2O1 (stereo unspecified) > 76.9 µM, CCOc1ccccc1N(C(=O)c1snc(C(N)=O)c1N)C(C(=O)NC1CCCC1)c1ccco1 (stereo unspecified) > 76.9 µM, CCCS(=O)(=O)NCc1ccc2c(c1)cc(C)n2C > 76.9 µM, COc1ccccc1Nc1nc(N)nc(CSCCO)n1 > 76.9 µM, COCC(C)n1c(C)cc(C(=O)COC(=O)c2c(NC(C)=O)sc(C)c2C)c1C (stereo unspecified) > 76.9 µM, C/C=C(\CS(=O)(=O)c1ccccc1)S(=O)(=O)c1ccccc1 > 76.9 µM, O=C(NCc1ccc(F)cc1)c1ccc(CS(=O)(=O)Cc2ccc(F)cc2)o1 > 76.9 µM, Cc1cc(NC(=O)c2noc3c2CCCC3)nn1Cc1ccc(Cl)cc1 > 76.9 µM, CCOC(=O)C1C(=O)CC(C)(O)C(C(=O)OCC)C1c1ccc(Br)o1 (stereo unspecified) > 76.9 µM, CN(C)Cc1c(C#N)c2ccccc2n1C > 76.9 µM, CSCCC(NC(=O)c1cncc(Br)c1)C(=O)O (stereo unspecified) > 76.9 µM, CC(=O)NC1(c2ccccc2)CCN(C(=O)N2CCOCC2)CC1 > 76.9 µM, CCN1CCN(C(=O)c2cc3nc(-c4ccccc4)cc(C(F)(F)F)n3n2)CC1 > 76.9 µM, COc1ccc(-c2nc(N3CCOCC3)nc3n[nH]c(N)c23)cc1 > 76.9 µM, CC1(C)CC2CC(C)(CN2C(=O)COC(=O)c2n[nH]c(=O)c3ccccc23)C1 (stereo unspecified) > 76.9 µM, Cc1ccc(S(=O)(=O)N2CCC(C(=O)N3Cc4ccccc4C3)CC2)cc1 > 76.9 µM, CCOC(=O)C1CCN(C(=O)CSc2nnc(-c3ccco3)n2-c2ccccc2)CC1 > 76.9 µM, COc1nccc(Nc2ccccc2)c1C#N > 76.9 µM, CCC(C)(C)n1nnnc1C(c1cccs1)N1CCc2ccccc21 (stereo unspecified) > 76.9 µM, Cc1ccccc1Cn1cc(NC(=O)c2noc3c2CC(C(C)(C)C)CC3)cn1 (stereo unspecified) > 76.9 µM, COC(=O)c1ccc(COc2ccc(C3C4=C(CCCC4=O)Nc4onc(C)c43)cc2)cc1 (stereo unspecified), COc1cccc(-n2c(CNC(=O)OC(C)(C)C)n[nH]c2=S)c1 > 76.9 µM, CC(C)CNC(=O)C1CCN(c2ccc(S(=O)(=O)N3CCOCC3)cc2Cl)CC1 > 76.9 µM, COc1ccc(CCNC(=O)CCCn2c(SCC#N)nc3ccccc3c2=O)cc1OC > 76.9 µM, Cc1cc(=O)n(CC(C)C)c(O)c1C#N > 76.9 µM, CN(CC(=O)N1CCCCCC1)S(=O)(=O)c1ccc(Br)s1 > 76.9 µM, Cc1nnc(SCc2cc(=O)n3[nH]cnc3n2)s1 > 76.9 µM, CCOCCCNC(=O)CCNS(=O)(=O)c1ccc(C)cc1 > 76.9 µM, Cc1ccc(-n2c(C)cc(C)c(C#N)c2=O)cc1 > 76.9 µM, O=C(NCc1cccnc1)C1CCN(S(=O)(=O)N2CCC3(CC2)OCCO3)CC1 > 76.9 µM, O=C(Nc1cccc(C(=O)N2CCOCC2)c1)NC1CCCCC1 > 76.9 µM, CCCOC(=O)CN1C(=O)c2ccccc2C1=O > 76.9 µM, CCOc1cccc(C2C(C(=O)c3ccc(C)o3)=C(O)C(=O)N2Cc2ccncc2)c1 (stereo unspecified) > 76.9 µM, COc1ccc2nc(C)cc(SCC(=O)O)c2c1 > 76.9 µM, COc1ccc(C(=O)c2oc3ccccc3c2N)cc1 > 76.9 µM, COc1cccc(NC(=O)NCc2cccn2C)c1 > 76.9 µM, CC(=O)N1CCc2cc(S(=O)(=O)NC(C(=O)Nc3nc(C)cs3)C(C)C)ccc21 (stereo unspecified) > 76.9 µM, CCOC(=O)c1c(C)[nH]c(C(=O)COC(=O)c2ccccc2NC(=O)c2ccco2)c1C > 76.9 µM, Cn1nnnc1SCC(=O)Nc1ccccc1Cl > 76.9 µM, CCOC(=O)c1cnc2c(-c3ccccc3)c(C)nn2c1N > 76.9 µM, COC(=O)CN(c1ccc2c(c1)OCO2)S(C)(=O)=O > 76.9 µM, Cc1cc(C)c2c(c1)c(C)cc1nnc(SCC(=O)NCc3ccco3)n12 > 76.9 µM, Cc1csc(NC(=O)CSc2nnc(-c3ccncc3)n2C)n1 > 76.9 µM, COc1cc2cc(C(=O)Nc3ccccc3)c(N)nc2cc1OC > 76.9 µM, COc1cccc(-c2nnc(NC(=O)Cc3cccs3)s2)c1 > 76.9 µM, Cc1nn(-c2ccc(C(=O)O)cc2)c(=O)c2ccccc12 > 76.9 µM, COc1ccc(S(=O)(=O)N(C)CC(=O)Nc2ccc(F)cc2)cc1 > 76.9 µM, COc1ccc(N(C)C(=O)CC2(CC(=O)O)CCCCC2)cc1 > 76.9 µM, CCc1ccc2[nH]c(=O)c(CN(Cc3ccc4c(c3)OCO4)Cc3nnnn3C3CCCC3)cc2c1, CCCCn1nnnc1SCC(=O)Nc1ccc(C)cc1 > 76.9 µM, O=C(CC(SCCO)c1ccc2c(c1)OCO2)c1cccs1 (stereo unspecified) > 76.9 µM, COc1ccc(C(CC(=O)NCCCN2CCOCC2)NS(=O)(=O)c2ccc(C)cc2)cc1 (stereo unspecified) > 76.9 µM, COc1ccc2cc3cc(C(=O)NCc4ccccn4)oc3nc2c1 > 76.9 µM, CCN1C(=O)C(C(=O)Nc2ccc(OC)cc2)C2CC1(C)Oc1ccccc12 (stereo unspecified) > 76.9 µM, O=C(CN1C(=O)c2cccc3cccc1c23)N1CCN(c2ccc(F)cc2)CC1 > 76.9 µM, COc1ccc(OC(=O)c2ccncc2)cc1 > 76.9 µM, O=C(CCCCCN1C(=O)CCC1=O)Nc1ccc(Br)cc1F > 76.9 µM, Cc1ccc(C(=O)CSc2nc(N)cc(=O)[nH]2)cc1 > 76.9 µM, Cn1c(CSc2ncccn2)nnc1SCC(=O)N1CCCc2ccccc21 > 76.9 µM, Cc1cc(C)nc(Sc2c(C)nn(-c3ccccc3)c2C)n1 > 76.9 µM, CCN1CCCC1CN(Cc1cc2cc(C)ccc2[nH]c1=O)C(=O)Nc1ccccc1OC (stereo unspecified) > 76.9 µM, COC(=O)c1cccc(CSc2nnc(C)s2)c1 > 76.9 µM, COc1ccc(NC(=O)C2CCN(c3cc(-c4ccccc4)nc4ncnn34)CC2)cc1OC > 76.9 µM

Reference: PubChem BioAssay AID360 (National Center for Advancing Translational Sciences (NCATS), 2006)
